Assay results as given in US9868789B2, “Synergistic combinations of OX40L antibodies for the treatment of GvHD” (Kymab Limited, priority 2015, dated 2018).
“And” between values parts separate entries of the source, which are not always exact repeats. Identical values can stand only once. “Also recorded” adds a separate entry of the source.

Assays:
Rhesus monkey OX40L = assay: Surface plasmon resonance, apparent affinity to rhesus OX40L; assay type: binding, Rhesus (Macaca mulatta); details: SPR, 25° C., OX40L at 256 nM; CNROR = Cannot resolve off-rate
Protocol: (§1) SPR analysis was carried out using the ProteOn™ XPR36 Array System (BioRad). Anti-mouse IgG (GE Healthcare BR-1008-38) was immobilised on a GLM biosensor surface using amine coupling, the surface was then blocked using 1 M ethanolamine. Test antibodies were captured on this surface and recombinant hOX40L (human and rhesus) were used at a single concentration of 256 nM, binding sensorgrams were double referenced using a buffer injection (i.e. 0 nM) to remove baseline drift and injection artefacts. Apparent affinities for the OX40L-antibody interaction were determined using the 1:1 model inherent to the ProteOn XPR36 analysis software. The assay was run using HBS-EP (Teknova) as running buffer and carried out at 25° C.

[1] = system: memory stem T-cells (Tscm) and naïve T-cells (Tn); assay: Flow cytometry of T cell subsets (Tscm, Tn) in the rhesus GvHD model; assay type: in vivo, Rhesus macaque
Protocol: Blood was collected into tubes with Sodium EDTA, and then red blood cells were lysed with lysis buffer containing ammonium chloride. Remaining leukocytes were washed with FACS buffer (PBS with 2% FBS) and stained with antibody cocktail (Table 7) for 30 minutes at 4° C. After staining, cells were washed and fixed in 1×BD Stabilizing Fixative. Acquisition of flow data was performed on BD LSR Fortessa cytometer. Data were analyzed using FloJo. T-cells were defined as CD3+CD14/CD20-lymphocytes.

recombinant hOX40L = molecular target: T1, recombinant hOX40L (Homo sapiens, UniProt P23510); assay: Surface plasmon resonance, apparent affinity to human OX40L; assay type: binding; details: SPR, 25° C., OX40L at 256 nM; CNROR = Cannot resolve off-rate
T1 construct: cDNA encoding the extracellular domain of human OX40L was cloned into a pREP4 expression plasmid; made in house; host or cells: FreeStyle CHO-S, transient expression
Protocol: as §1

[2] = system: Rhesus Macaque model of haploidentical hematopoietic stem cell transplantation (HSCT); assay: Rhesus Macaque Graft Versus Host Disease (GvHD) model, 2D10 IgG4PE monotherapy prophylaxis
[3] = system: CD3 primed primary human T lymphocytes; assay: Effect of anti-OX40L antibodies on CD3 primed primary human T lymphocytes (IFN-γ release); assay type: cell-based; details: 10 μg/mL, 5 days, four independent donors; versus human IgG4PE isotype control
Protocol: In order to determine whether anti-OX40L had the ability to induce T-cell responses in the absence of OX40L, the assay below was performed using method adapted from Wang et al., Hybridoma (Larchmt)., 2009 Aug.; 28(4):269-76, in which an agonist anti-OX40L antibody was described.
A mouse anti-human CD3 antibody (Becton Dickinson) was diluted to 0.5 μg/mL in sterile PBS and 50 μL/well added to a 96 well high binding sterile plate and incubated overnight at 4° C.
Following overnight incubation, the plate was washed three times with 100 μL of sterile PBS.
T-cells (CD3 positive) were isolated from PBMC derived from leukoreduction system chambers (NHSBT) as described in Example 3. Following isolation, the cells were added to wells in 100 μL to achieve a final concentration of 1×10^5 cells/well.
Test antibodies were diluted in RPMI+10% FBS and 50 μL or 100 μL/well added to cell plate to achieve a final assay concentration of 10 μg/mL. In some cases, a mouse anti-human CD28 antibody (Becton Dickinson) was also added to wells at a final concentration of 1 μg/ml
The assay was incubated for 5 days. After 5 days, harvest supernatants and IFN-γ levels in supernatant were determined as described in Example 5.

[4] = system: peripheral blood donor chimerism; assay: Donor chimerism in the rhesus GvHD model (MHC-linked microsatellite markers); assay type: in vivo, Rhesus macaque; details: individual animals
[5] = individual animals (#1 r6, #2 r7, #3 r8, #4 r9, #5 r10, #6 r11), 10 mg/kg i.v., brackets = experimental failure

T1 sequence (P23510 with tags, fused parts or gaps): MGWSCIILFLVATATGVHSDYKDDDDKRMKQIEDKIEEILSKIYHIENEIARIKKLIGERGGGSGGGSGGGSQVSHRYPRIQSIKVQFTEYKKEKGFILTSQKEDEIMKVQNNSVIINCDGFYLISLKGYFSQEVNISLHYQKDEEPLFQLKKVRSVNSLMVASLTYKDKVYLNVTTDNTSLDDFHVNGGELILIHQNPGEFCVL

B1: 2D10 IgG4PE: fully human anti-human OX40L antibody, IgG4-PE; heavy chain SEQ ID No:62, light chain SEQ ID No:64 (antibody, listed as Homo Sapiens)
heavy: EVQLVESGGGLVQPGGSLRLSCAASGFTFSNYAMNWVRQAPGKGLEWVSTISGSGGATRYADSVKGRFTISRDNSRNTVYLQMNSLRVEDTAVFYCTKDRLIMATVRGPYYYGMDVWGQGTTVTVSSASTKGPSVFPLAPCSRSTSESTAALGCLVKDYFPEPVTVSWNSGALTSGVHTFPAVLQSSGLYSLSSVVTVPSSSLGTKTYTCNVDHKPSNTKVDKRV[human IgG4 Fc with changes not spelt out]
light: DIQMTQSPSSLSASVGDRVTITCRASQSISSYLNWYQQKPGKAPNLLIYAASSLQSGVPSRFSGSGSETDFTLTISSLQPEDFATYYCQQSHSVSFTFGPGTKVDIKRTVAAPSVFIFPPSDEQLKSGTASVVCLLNNFYPREAKVQWKVDNALQSGNSQESVTEQDSKDSTYSLSSTLTLSKADYEKHKVYACEVTHQGLSSPVTKSFNRGEC
Rhesus monkey OX40L
  Apparent Affinity RhsOX40L (nM): CNROR
[1]; CD4+ and CD8+ Tscm, compared with sirolimus and Tac/MTX treatment, FIG. 6
  proportion of post-HCT Tscm cells in peripheral blood: sustained inhibition of the proportion of Tscm cells
[1]; peripheral blood, FIG. 4
  CD4+ Tn (naïve) cells following allogeneic HCT: preserving CD4+ T naïve cells; also recorded: preservation of CD4+ Tn cells
  CD4+ Tscm expansion following allogeneic HCT: controls expansion of CD4+ Tscm cells; also recorded: limited CD4+ Tscm expansion
Recombinant hOX40L
  Apparent Affinity hOX40L (nM): CNROR
[2]; 10 mg/kg i.v., rhesus HSCT recipients
  serious adverse dosing side effects: No serious adverse dosing side effects
[2]; 2D10 monotherapy, n=4
  median survival time, MST: 19 days
[2]; animal #4
  visceral GvHD at gross necropsy: confirmed no overt visceral GvHD.
[2]; in words
  clinical symptoms of acute GVHD: reduces clinical symptoms of acute GVHD
  survival of animals after allogeneic HCT: prolonged survival
[2]; individual animals
  evidence of CMV or rhLCV infection: No evidence; also recorded: No evidence of CMV or rhLCV; also recorded: repopulation concurrent with evidence of CMV and rhLCV
[2]; individual animals #1, #2, #4, #5, #6, #1 recorded as Technical Failure
  Survival to Day: Survival to Day 16. Received 3 doses of 2D10 IgG4PE. Peak day; also recorded: Survival to Day 26. Received 4 doses of 2D10 IgG4PE. Clear day; also recorded: Survival to Day 22. Received 4 doses of 2D10 IgG4PE. Clear day; also recorded: Survival to Day 16. Received 3 doses of 2D10 IgG4PE. Clear day; also recorded: Survival to day 24. Received 4 doses of 2D10 IgG4PE. Biphasic
[2]; [5]
  Survival Duration: 22 days and 16 days (2×) and 26 days
  Survival Duration (days): (24) days; also recorded: (0) days
[3]
  IFN-γ release from CD3 primed T-cells in the absence of OX40L: no effect
[4]; Day 0
  Whole Blood Chimerism (%) Day 0: 0%
[4]; Day 1
  Whole Blood Chimerism (%) Day 1: 16.6% and 5.7% and 22.9%
[4]; Day 4
  Whole Blood Chimerism (%) Day 4: 6.6%
[4]; Day 5
  Whole Blood Chimerism (%) Day 5: 91.4% and 66.3% and 31.7% and 68.2%
[4]; Day 7
  Whole Blood Chimerism (%) Day 7: 27.5%
[4]; Day 8
  Whole Blood Chimerism (%) Day 8: 98.4% and 97.4% and 66.3% and 82.9%
[4]; Day 11
  Whole Blood Chimerism (%) Day 11: 90.4%
[4]; Day 12
  Whole Blood Chimerism (%) Day 12: 98.6% and 99.5% and 82.3% and 92.1%
[4]; Day 14
  Whole Blood Chimerism (%) Day 14: 81.8%
[4]; Day 15
  Whole Blood Chimerism (%) Day 15: 99.1% and 99.4% and 88.2% and 97.5%
[4]; Day 16
  Whole Blood Chimerism (%) Day 16: 79.8%
[4]; Day 18
  Whole Blood Chimerism (%) Day 18: 19.7%
[4]; Day 20
  Whole Blood Chimerism (%) Day 20: 99.2% and 98.4%
[4]; Day 21
  Whole Blood Chimerism (%) Day 21: 0%
[4]; Day 23
  Whole Blood Chimerism (%) Day 23: 98.6% and 98.8%
[4]; Day 26
  Whole Blood Chimerism (%) Day 26: 98.7%
[4]; day of peak printed per animal (Day 12 to Day 23)
  peak peripheral blood donor chimerism: 88% and 99% (2×) and 100%
